The campaign covered roughly 50,000 compounds. About 800 (1.6%) showed an effect of 50% or more. Some of the results follow.

This experiment has as its target Bcl-2-like protein 10 (Homo sapiens) (UniProt Q9HD36). Briefly: Phenotype converters, Bcl-B/TR3 peptide binding displacement, primary biochemical FP (AID 1240).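 Also: 0% = Bcl-B with tracer peptide and DMSO and 100% = tracer peptide lacking Bcl-B.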 The settings on record: GST-Bcl-B / FITC-TR3 peptide fluorescence polarization; stronger effect = higher value; compound at 3.75 mg/L. On the technique in general: In fluorescence polarisation assays a small probe gives low polarisation when free and higher when bound to something large.
Sequence of UniProt Q9HD36 (Q9HD36 whole entry, looked up): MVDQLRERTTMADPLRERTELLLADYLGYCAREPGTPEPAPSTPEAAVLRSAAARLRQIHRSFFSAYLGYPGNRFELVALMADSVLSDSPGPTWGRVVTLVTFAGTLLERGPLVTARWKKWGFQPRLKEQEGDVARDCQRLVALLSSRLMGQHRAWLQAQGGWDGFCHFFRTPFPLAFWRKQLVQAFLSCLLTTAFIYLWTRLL
On to `COc1ccccc1NC(=O)/C(=C\c1cccc([N+](=O)[O-])c1)NC(=O)c1cccs1`, for which the displacement is -4.9%. Regarding `Cc1ccc(NC(=O)COc2ccccc2)c([N+](=O)[O-])c1`, the displacement is -2.4%. Regarding `CC1=C(C(=O)OCCc2ccccc2)C(c2ccc(O)c([N+](=O)[O-])c2)NC(=O)N1` (stereo unspecified), the displacement worked out at 5.4%. The value for `CCN(CC)S(=O)(=O)c1ccc(NC(C)=O)cc1` was -5.4%; that for `COc1ccc(Cl)cc1/C=C(/C#N)c1nc2ccccc2[nH]1` was -2.8%. The value for `O=C1/C(=C\c2ccc(-c3cccc(Cl)c3)o2)SC(=S)N1CCS(=O)(=O)O` was -24.2%; that for `CC(=O)Nc1nonc1-c1nc2ccccc2n1Cc1ccc(C(C)(C)C)cc1` was 52.2%; that for `O=C1C(=O)N(c2cccnc2)C(c2ccccc2[N+](=O)[O-])/C1=C(\O)c1ccc(Cl)cc1` (stereo unspecified) was 18.3%.

On to `COc1ccc(NC2=Nc3cccc4cccc2c34)cc1`, for which the displacement is -16.9%. For the molecule `CCOC(=O)C1=C(C)N=c2s/c(=C\c3ccc(OCC(=O)O)cc3)c(=O)n2C1c1ccccc1` (stereo unspecified), the displacement is -12.5%.

For `COc1ccc(Nc2nc(-c3ccc(Cl)c(Cl)c3)cs2)cc1`, the displacement worked out at 13.7%. The value for `Cc1ccc(CN2CCN(N=Cc3ccc(N(C)C)cc3)CC2)c(C)c1` was -4.8%; that for `CCCCCc1nc2sc3c(c2c(=O)n1N)CCCC3` was -6.1%; that for `CC(=O)Oc1ccc2c(C)c(C)c(=O)oc2c1C` was 7.3%. As to `Cc1ccc(-c2cc(C(=O)N/N=C/c3ccc(Br)cc3)[nH]n2)cc1`, the displacement was -5.2%. For the molecule `O=S(=O)(N/N=C/c1cc(Cl)ccc1O)c1ccc(Cl)cc1`, the displacement is 11.9%. `CNc1nc(Nc2cccc([N+](=O)[O-])c2)nc(OCC(F)(F)F)n1`: the displacement is -28.1%.

With `O=C1C2C3c4ccccc4C(C(=O)O)(c4ccccc43)C2C(=O)N1c1cccc([N+](=O)[O-])c1` (stereo unspecified), the displacement was -7%. The value for `CCc1ccccc1NC1=NS(=O)(=O)c2cc([N+](=O)[O-])ccc21` was 2.5%; that for `COc1cc(/C=N\NC(=O)CNc2ccc(C)cc2)ccc1OCc1ccccc1` was 0.3%. The value for `O=C1C2C(C(=O)N1c1ccccc1Cl)C1C=CC2C12CC2` (stereo unspecified) was -1.2%; that for `CCOc1c(Br)cc(/C=C2\C(=O)NC(=O)N(c3ccc(OC)cc3)C2=O)cc1OC` was 10.1%.

As for `Cc1ccc(C)c(NC(=O)C2C3C4CCC(C4)C23)c1` (stereo unspecified), the displacement was -7.2%. On to `O=C(N1CCOCC1)C(F)(F)C(F)(F)C(F)(F)C(F)(F)C(=O)N1CCOCC1`, for which the displacement came out at 6.7%.

For the molecule `O=C(CCc1ccccc1)NCc1ccccc1Cl`, the displacement was -1.9%. The value for `COc1ccccc1-c1nnc(NC(=O)Nc2ccc(Cl)c(Cl)c2)s1` was 2.7%; that for `COc1ccc(N(CC(=O)N/N=C(\C)c2ccccc2)S(=O)(=O)c2ccccc2)cc1` was -4%; that for `O=CNC(Nc1ccc(Cl)cc1Cl)C(Cl)(Cl)Cl` (stereo unspecified) was -0.1%. The value for `S=c1[nH]nc(-c2ccccc2Cl)n1C1CCCCC1` was -32.4%; that for `CN(C)c1cc(N/N=C/c2ccc([N+](=O)[O-])cc2)nc(N(C)C)n1` was 7.5%; that for `COc1ccccc1NC(=O)C(Cc1c[nH]c2ccccc12)NC(=O)Oc1ccccc1` (stereo unspecified) was 10.1%.

Regarding `CC1=C(C(=O)OCC(C)C)C(c2ccsc2)C2=C(CCCC2=O)N1` (stereo unspecified), the displacement was -11.4%. As to `COc1ccc(-n2c(/C=C/N(C)C)c([N+](=O)[O-])c3ccc(O)c(COC(C)=O)c32)cc1`, the displacement was determined as 2.6%. Consider `CC(C)Oc1ccc(-c2nc3sc4c(c3c(=O)[nH]2)CCCC4)cc1`, for which the displacement is -6.9%. The value for `COc1ccc(C(=O)Nc2ccc(C(N)=O)cc2)cc1[N+](=O)[O-]` was 13.2%. As to `Cc1ccc(CNC(=O)C23CC4CC(CC(C4)C2)C3)cc1`, the displacement came to 10.4%.

Regarding `COc1ccc(C(=O)NNC(=O)c2cccc(C)c2O)cc1OC`, the displacement is -1.1%. With `C/C(=C\c1ccccc1)C(=O)c1c(C)cc(C)[nH]c1=O`, the displacement stood at 12.9%. The value for `CCOC(=O)c1c(C)sc(Sc2ccc(Br)cc2[N+](=O)[O-])c1OC` was -9%; that for `COc1ccc(N(CC(=O)N2CCOCC2)S(C)(=O)=O)cc1` was 7.1%. The value for `CCN(CC)C(=O)C(=O)NNC(=O)COc1ccc(Cl)cc1` was -6.7%; that for `COc1ccccc1-n1c(C)c(C(=O)O)c2cc(OC)c3ccccc3c21` was 13.8%; that for `COc1ccc(-c2cc(C(=O)N3CCN(C)CC3)c3ccccc3n2)cc1OC` was 5.2%. Take `CCc1ccccc1NC(=O)C(C)Oc1ccc(OC)cc1` (stereo unspecified): the displacement was found to be 9.1%. The value for `O=C(NCCc1ccc(F)cc1)C(=O)Nc1cccc(Cl)c1` was -0.4%.

`CCOC(=O)C1=C(C)NC2=C(C(=O)c3ccccc32)C1c1ccccc1[N+](=O)[O-]` (stereo unspecified): the displacement is -3.5%. The value for `O=C(Nc1ccc([N+](=O)[O-])cc1)C1C(c2ccccc2)=C1c1ccccc1` was -4.7%; that for `CCCNC(=O)OCC12CC3CC(CC(C3)C1)C2` was 0.2%; that for `Cc1nc(NC(=O)c2ccccc2)sc1-c1csc(Nc2ccc(O)cc2)n1` was -1.9%. Take `COC(=O)c1ccc(-n2c(C)ccc2-c2ccccc2)cc1`: the displacement was 12.8%.

On to `O=C(/C=C/c1ccccc1)N1CCN(c2nc3ccc([N+](=O)[O-])cc3s2)CC1`, for which the displacement was 15%. For `Cn1c(CC(O)(c2ccccc2)c2ccccc2)nc2ccccc21`, the displacement worked out at 15.7%. The value for `COc1ccc(N(CC(=O)NCC(C)C)S(=O)(=O)c2ccc(C)cc2)cc1` was 0.8%; that for `Oc1ccccc1/C=N/Nc1nc(N2CCOCC2)nc(N2CCOCC2)n1` was 6.9%; that for `COc1cc(C2NC(=O)N(C)C(C)=C2C(=O)OCc2ccccc2)cc(Br)c1O` (stereo unspecified) was -4.8%. The value for `CC(=O)c1sc(N)c(C(=O)OC(C)C)c1C` was 6.2%; that for `Cc1ccc(NC(=O)c2ccc(C)o2)cc1` was 2.5%. The value for `COc1ccc(OC)c(S(=O)(=O)NCc2ccccn2)c1` was 14%; that for `CCOc1ccc(C(=O)Nc2cccc(-c3nc4ncccc4o3)c2C)cc1Cl` was 3.5%; that for `CN1CCN(Cn2c(O)c(N=NC(=O)c3ccccc3)c3ccccc32)CC1` was -16.9%. Turning to `O=C(Nc1ccccc1NC(=O)c1ccc(F)cc1)c1ccc(F)cc1`, the displacement came out at 7.7%.

As for `COC(=O)c1ccc(/C=N/c2c(-c3ccco3)nc3ccccn23)cc1`, the displacement came to 14.4%. The value for `CCc1ncc(C(O)c2ccccc2OC)n1C` (stereo unspecified) was 8.3%; that for `Cc1ccc2cccc(SCC(=O)c3ccc(Br)cc3)c2n1` was 6.1%. The value for `CCOC(=O)C(CCOCCOc1c(Cl)cc(Cl)cc1Cl)C(=O)OCC` was 12.1%; that for `O=[N+]([O-])c1ccc(-n2nncc2C23CC4CC(CC(C4)C2)C3)cc1` was -4.7%; that for `O=C(c1cccs1)N1CCN(c2cc(N3CCCC3)c(F)cc2[N+](=O)[O-])CC1` was -1.4%. The value for `COc1ccc(C2=NN(C(=O)CCC(=O)O)C(c3ccc([N+](=O)[O-])cc3)C2)cc1` (stereo unspecified) was 12.6%; that for `COc1cc2c(cc1OC)C1(CCCC1)CNC2c1cccc([N+](=O)[O-])c1` (stereo unspecified) was -3.8%. For `CCOC(=O)C(CCCCCOc1ccccc1C(C)(C)C)C(=O)OCC`, the displacement was 9.4%. The value for `CN(C(=O)c1ccc(F)cc1)C1CCCCC1` was 3.1%; that for `O=C(Nc1ccc(OC(F)F)cc1)c1cccs1` was -0.2%. The value for `CCCc1nnc(NC(=O)CSc2nc3ccccc3s2)s1` was -17.3%. Turning to `COc1cc(CN2CCN(C3CCN(Cc4ccccc4)CC3)CC2)cc(OC)c1OC`, the displacement is -4.6%. Regarding `COc1cccc(C2(c3cccc(OC)c3)CC2C(=O)NCc2ccccc2)c1` (stereo unspecified), the displacement was -0.5%. As for `O=C(Nc1ccc(-c2nc3ccccc3s2)c(O)c1)c1ccc(-c2cccc([N+](=O)[O-])c2)o1`, the displacement was determined as 6.1%. The value for `CC1=CC(C)(C)N(CN2C(=O)c3ccccc3C2=O)c2ccccc21` was -4.7%; that for `CCCOc1ncnc2sc3c(c12)CCCC3` was -3.9%; that for `O=C(Nc1ccc(-c2nc3ccccc3[nH]2)cc1)c1ccccc1[N+](=O)[O-]` was 15.9%. The value for `COc1ccc(CN(C(=S)Nc2ccccc2)C2CC(=O)N(c3ccc(F)cc3)C2=O)cc1` (stereo unspecified) was -13.5%; that for `CCOc1ccc(N2C(=O)CC(Cc3ccccc3)C2=O)cc1` (stereo unspecified) was 9.5%. As to `CCOc1cc(/C=C2/C(=N)N3N=C(CC)SC3=NC2=O)ccc1OC(=O)c1cccc([N+](=O)[O-])c1`, the displacement was -2.3%. The value for `O=C(N/N=C/c1ccc(Br)cc1)c1cc(=O)[nH]c2ccccc12` was 32.1%; that for `CC(C)c1nnc(NC(=O)Nc2ccccc2)s1` was 11.8%; that for `CCCc1c(O)nc(SCCN(CCC)CCC)n(-c2ccccc2)c1=O` was -12.7%. With `N#Cc1c(NC(=O)c2cnn3c(C(F)(F)F)cc(-c4ccccc4)nc23)sc2c1CCCC2`, the displacement is -6.1%. Regarding `COC(=O)C1=C(C)N=c2s/c(=C/c3cccnc3)c(=O)n2C1c1ccc(C(C)C)cc1` (stereo unspecified), the displacement worked out at 11.7%. For the molecule `Cc1cccc(N2C(=O)NC(=O)/C(=C/c3ccc(F)cc3)C2=O)c1`, the displacement is -15.5%. On to `CN(C)c1ccc(NS(=O)(=O)c2cccc([N+](=O)[O-])c2)cc1`, for which the displacement came to 5.4%.

As to `COc1ccc(CCNC(=O)C(=O)NCc2ccc(C)cc2)cc1OC`, the displacement came to 17.7%. The value for `COc1ccc(OCC(=O)Nc2c(C)cccc2C)cc1` was 6.3%; that for `CC(=O)N1c2ccccc2NC2=C(C(=O)CC(C)(C)C2)C1c1cccc(F)c1` (stereo unspecified) was -6.6%.

As to `CC(=O)OCc1cc(=O)n(C)c(=O)n1C`, the displacement is -9.3%. Regarding `Cc1ccc(NC(=O)CN(c2cccc(C(F)(F)F)c2)S(C)(=O)=O)cc1`, the displacement was -8.9%. With `Brc1ccccc1NCc1ccncc1`, the displacement turned out to be 10.8%. Take `CS(=O)(=O)c1ccc2nc(NS(=O)(=O)c3ccc(F)cc3)sc2c1`: the displacement is -1.9%. Consider `COc1ccc(N2CC(C(=O)N/N=C/c3ccc(F)cc3)CC2=O)cc1` (stereo unspecified), for which the displacement is -4.9%. Take `COc1ccc(C(NC(=O)C(c2ccccc2)c2ccccc2)NC(=O)C(c2ccccc2)c2ccccc2)cc1`: the displacement was determined as 9.7%. The value for `Cc1ccc(/C(O)=C2\C(=O)C(=O)N(CCCC(=O)O)C2c2ccccc2F)cc1` (stereo unspecified) was -2.9%; that for `CCOc1ccccc1/C=C1\C(=O)NC(=O)N(c2ccc(Br)c(C)c2)C1=O` was -7.9%. Regarding `O=[N+]([O-])c1ccc(Oc2ccc(S(=O)(=O)N3CCOCC3)cc2)cc1`, the displacement is 4.5%. The value for `Cc1sc(NC(=O)Cc2ccccc2)c(C(N)=O)c1C` was 11.2%; that for `COc1ccc(OC)c(/C=C/C(=O)c2c(-c3ccccc3)c3cc(Cl)ccc3[nH]c2=O)c1` was -12.7%. The value for `COc1cc(C2CC(=O)Nc3c2ccc2ccccc32)cc(Br)c1OC` (stereo unspecified) was 7.1%. For the molecule `O=c1oc2ccc3ccccc3c2cc1-c1ccc(I)cc1`, the displacement came to 5.1%. The value for `Cc1cc(OCC(=O)Nc2ccccc2-c2ccccc2)ccc1Br` was 5.4%.

(Values after PubChem BioAssay AID1240 (Sanford-Burnham Center for Chemical Genomics, 2008).)
